{
  "source": "patent US10285962B2",
  "about": "“Glutarate compounds for treating ischemia-reperfusion injuries” (The Regents of the University of California, priority 2016, dated 2019)",
  "system": "Isolated Langendorff perfused hearts",
  "design": "dose or concentration left out as unconfirmed",
  "note": "Read-outs that look alike come from different tables or passages of the source.",
  "data": [
    {"smiles": "O=C(O)CCC(=O)C(=O)O", "note": "[α-KG, α-ketoglutarate]", "values": [
      {"measurement": "Rate pressure product (RPP) recovery", "setting": "after 5 minutes of reperfusion", "result": "about 70%"},
      {"measurement": "Rate pressure product (RPP) recovery", "setting": "after 30 minutes of reperfusion", "result": "about 80%"},
      {"measurement": "left ventricle developed pressure (LVDP) compared to control", "setting": "in KH buffer during 60 minutes reperfusion after 30 minutes ischemia", "result": "much higher"}
    ]}
  ]
}
